# This is one part of the list.
# B1: GSL-I-B4 (Griffonia simplicifolia) (protein)
# chain: NFWSDVEDSIIFQGDANTTAGTLQLCKTNQYGTPLQWSAGRALYSDPVQLWDNKTESVASFYTEFTFFLKITGNGPADGLAFFLAPPDSDVKDAGEYLGLFNKSTATQPSKNQVVAVEFDTWTNPNFPEPSYRHIGINVNSIVSVATKRWEDSDIFSGKIATARISYDGSAEILTVVLSYPDGSDYILSHSVDMRQNLPESVRVGISASTGNNQFLTVYILSWRFSSNLQSTSVKAAMEPEITRTVV
# What was measured:
# Test in all cases: glycan array binding signal (z-score within array); higher = stronger binding
# Details in all cases: glycan notation: IUPAC condensed, linker removed
# [1] = biological target: Neu5Ac(a2-6)Gal(b1-4)GlcNAc(b1-3)Gal(b1-4)GlcNAc(b1-3)GalNAc
# Outline: (§1)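 From the Consortium for Functional Glycomics database, 3228 arrays were curated, keeping only those whose protein sequence was available. Binding is given as a within-array Z-score averaged across arrays sharing a protein sequence and across linkers. Negative Z-scores can be read as non-binding.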
# [2] = biological target: Neu5Ac(a2-6)Gal(b1-4)GlcNAc(b1-3)Gal(b1-4)GlcNAc(b1-3)[Neu5Ac(a2-6)Gal(b1-4)GlcNAc(b1-3)Gal(b1-4)GlcNAc(b1-6)]GalNAc
# Outline: as §1
# [3] = biological target: Neu5Ac(a2-6)Gal(b1-4)GlcNAc(b1-3)Gal(b1-4)GlcNAc(b1-6)[Gal(b1-3)]GalNAc
# Outline: as §1
# [4] = biological target: Neu5Ac(a2-6)Gal(b1-4)GlcNAc(b1-3)Gal(b1-4)[Fuc(a1-3)]GlcNAc(b1-3)Gal(b1-4)[Fuc(a1-3)]GlcNAc
# Outline: as §1
# [5] = biological target: Neu5Ac(a2-6)Gal(b1-4)GlcNAc(b1-3)GalNAc
# Outline: as §1
# [6] = biological target: Neu5Ac(a2-6)Gal(b1-4)GlcNAc(b1-3)[Neu5Ac(a2-6)Gal(b1-4)GlcNAc(b1-6)]GalNAc
# Outline: as §1
# [7] = biological target: Neu5Ac(a2-6)Gal(b1-4)GlcNAc(b1-6)GalNAc
# Outline: as §1
# [8] = biological target: Neu5Ac(a2-6)Gal(b1-4)GlcNAc(b1-6)[Gal(b1-3)GlcNAc(b1-3)]Gal(b1-4)Glc
# Outline: as §1
# [9] = biological target: Neu5Ac(a2-6)Gal(b1-4)GlcNAc(b1-6)[Gal(b1-3)]GalNAc
# Outline: as §1
# [10] = biological target: Neu5Ac(a2-6)Gal(b1-4)GlcNAc6S
# Outline: as §1
# Neu5Ac(a2-6)GalNAc = biological target: Neu5Ac(a2-6)GalNAc
# Outline: as §1
# [11] = biological target: Neu5Ac(a2-6)GalNAc(b1-4)GlcNAc
# Outline: as §1
# [12] = biological target: Neu5Ac(a2-6)GalNAc(b1-4)GlcNAc6S
# Outline: as §1
# [13] = biological target: Neu5Ac(a2-6)GlcNAc(b1-4)GlcNAc
# Outline: as §1
# [14] = biological target: Neu5Ac(a2-6)GlcNAc(b1-4)GlcNAc(b1-4)GlcNAc
# Outline: as §1
# Neu5Ac(a2-8)Neu5Ac = biological target: Neu5Ac(a2-8)Neu5Ac
# Outline: as §1
# [15] = biological target: Neu5Ac(a2-8)Neu5Ac(a2-3)Gal(b1-3)GalNAc(b1-4)[Neu5Ac(a2-3)]Gal(b1-4)Glc
# Outline: as §1
# [16] = biological target: Neu5Ac(a2-8)Neu5Ac(a2-3)Gal(b1-3)GalNAc(b1-4)[Neu5Ac(a2-8)Neu5Ac(a2-3)]Gal(b1-4)Glc
# Outline: as §1
# [17] = biological target: Neu5Ac(a2-8)Neu5Ac(a2-3)Gal(b1-4)Glc
# Outline: as §1
# [18] = biological target: Neu5Ac(a2-8)Neu5Ac(a2-3)Gal(b1-4)GlcNAc
# Outline: as §1
# [19] = biological target: Neu5Ac(a2-8)Neu5Ac(a2-3)[Gal(b1-3)GalNAc(b1-4)]Gal(b1-4)Glc
# Outline: as §1
# [20] = biological target: Neu5Ac(a2-8)Neu5Ac(a2-3)[GalNAc(b1-4)]Gal(b1-4)Glc
# Outline: as §1
# [21] = biological target: Neu5Ac(a2-8)Neu5Ac(a2-8)Neu5Ac
# Outline: as §1
# [22] = biological target: Neu5Ac(a2-8)Neu5Ac(a2-8)Neu5Ac(a2-3)Gal(b1-4)Glc
# Outline: as §1
# [23] = biological target: Neu5Ac(a2-8)Neu5Ac(a2-8)Neu5Ac(a2-3)[Gal(b1-3)GalNAc(b1-4)]Gal(b1-4)Glc
# Outline: as §1
# [24] = biological target: Neu5Ac(a2-8)Neu5Ac(a2-8)Neu5Ac(a2-3)[GalNAc(b1-4)]Gal(b1-4)Glc
# Outline: as §1
# [25] = biological target: Neu5Ac(a2-8)Neu5Ac(a2-8)Neu5Ac(a2-8)Neu5Ac(a2-3)[GalNAc(b1-4)]Gal(b1-4)Glc
# Outline: as §1
# [26] = biological target: Neu5Ac(a2-8)Neu5Gc(a2-3)Gal(b1-4)GlcNAc
# Outline: as §1
# [27] = biological target: Neu5Ac(b2-6)Gal(b1-4)GlcNAc
# Outline: as §1
# Neu5Ac(b2-6)GalNAc = biological target: Neu5Ac(b2-6)GalNAc
# Outline: as §1
# [28] = biological target: Neu5Ac9Ac(a2-3)Gal(b1-3)GlcNAc
# Outline: as §1
# [29] = biological target: Neu5Ac9Ac(a2-3)Gal(b1-4)GlcNAc
# Outline: as §1
# [30] = biological target: Neu5Ac9Ac(a2-6)Gal(b1-4)GlcNAc
# Outline: as §1
# [31] = biological target: Neu5Gc(a2-3)Gal(b1-3)GlcNAc
# Outline: as §1
# [32] = biological target: Neu5Gc(a2-3)Gal(b1-3)[Fuc(a1-4)]GlcNAc
# Outline: as §1
# Neu5Gc(a2-3)Gal(b1-4)Glc = biological target: Neu5Gc(a2-3)Gal(b1-4)Glc
# Outline: as §1
# [33] = biological target: Neu5Gc(a2-3)Gal(b1-4)GlcNAc
# Outline: as §1
# [34] = biological target: Neu5Gc(a2-3)Gal(b1-4)GlcNAc(b1-3)Gal(b1-4)GlcNAc(b1-2)Man(a1-3)[Neu5Gc(a2-3)Gal(b1-4)GlcNAc(b1-3)Gal(b1-4)GlcNAc(b1-2)Man(a1-6)]Man(b1-4)GlcNAc(b1-4)GlcNAc
# Outline: as §1
# [35] = biological target: Neu5Gc(a2-3)Gal(b1-4)[Fuc(a1-3)]GlcNAc
# Outline: as §1
# [36] = biological target: Neu5Gc(a2-6)Gal(b1-4)GlcNAc
# Outline: as §1
# Neu5Gc(a2-6)GalNAc = biological target: Neu5Gc(a2-6)GalNAc
# Outline: as §1
# [37] = biological target: Neu5Gc(a2-8)Neu5Ac(a2-3)Gal(b1-4)GlcNAc
# Outline: as §1
# [38] = biological target: Neu5Gc(a2-8)Neu5Gc(a2-3)Gal(b1-4)GlcNAc
# Outline: as §1
# [39] = biological target: Neu5Gc(a2-8)Neu5Gc(a2-3)Gal(b1-4)GlcNAc(b1-3)Gal(b1-4)GlcNAc
# Outline: as §1
# [40] = biological target: Neu5Gc(a2-8)Neu5Gc(a2-6)Gal(b1-4)GlcNAc
# Outline: as §1
# [41] = biological target: Neu5Gc(b2-6)Gal(b1-4)GlcNAc
# Outline: as §1
binder,measurement,setting,value
B1,glycan array binding signal (z-score),[1],-0.197
same,glycan array binding signal (z-score),[2],0.078
same,glycan array binding signal (z-score),[3],-0.169
same,glycan array binding signal (z-score),[4],-0.135
same,glycan array binding signal (z-score),[5],-0.209
same,glycan array binding signal (z-score),[6],-0.161
same,glycan array binding signal (z-score),[7],-0.124
same,glycan array binding signal (z-score),[8],-0.205
same,glycan array binding signal (z-score),[9],-0.147
same,glycan array binding signal (z-score),[10],-0.143
same,glycan array binding signal (z-score),Neu5Ac(a2-6)GalNAc,-0.224
same,glycan array binding signal (z-score),[11],-0.198
same,glycan array binding signal (z-score),[12],-0.181
same,glycan array binding signal (z-score),[13],-0.014
same,glycan array binding signal (z-score),[14],-0.169
same,glycan array binding signal (z-score),Neu5Ac(a2-8)Neu5Ac,-0.134
same,glycan array binding signal (z-score),[15],-0.089
same,glycan array binding signal (z-score),[16],-0.227
same,glycan array binding signal (z-score),[17],-0.205
same,glycan array binding signal (z-score),[18],-0.154
same,glycan array binding signal (z-score),[19],-0.199
same,glycan array binding signal (z-score),[20],-0.224
same,glycan array binding signal (z-score),[21],-0.144
same,glycan array binding signal (z-score),[22],-0.113
same,glycan array binding signal (z-score),[23],-0.092
same,glycan array binding signal (z-score),[24],-0.151
same,glycan array binding signal (z-score),[25],-0.128
same,glycan array binding signal (z-score),[26],-0.18
same,glycan array binding signal (z-score),[27],-0.199
same,glycan array binding signal (z-score),Neu5Ac(b2-6)GalNAc,-0.2
same,glycan array binding signal (z-score),[28],-0.176
same,glycan array binding signal (z-score),[29],-0.134
same,glycan array binding signal (z-score),[30],-0.205
same,glycan array binding signal (z-score),[31],-0.171
same,glycan array binding signal (z-score),[32],-0.186
same,glycan array binding signal (z-score),Neu5Gc(a2-3)Gal(b1-4)Glc,-0.183
same,glycan array binding signal (z-score),[33],-0.151
same,glycan array binding signal (z-score),[34],-0.168
same,glycan array binding signal (z-score),[35],-0.163
same,glycan array binding signal (z-score),[36],-0.157
same,glycan array binding signal (z-score),Neu5Gc(a2-6)GalNAc,-0.212
same,glycan array binding signal (z-score),[37],-0.183
same,glycan array binding signal (z-score),[38],-0.155
same,glycan array binding signal (z-score),[39],-0.181
same,glycan array binding signal (z-score),[40],-0.141
same,glycan array binding signal (z-score),[41],-0.151
